Measured values from PMC4336329 (PLoS ONE, 2015).
Among all 310,000 compounds or so, about 2,200 (0.71%) showed an effect of 50% or more. Effects have a minus sign here. The list shows a part of the results.

target: human ether-à-go-go-related gene (hERG) potassium channel (human, UniProt Q12809); assay: primary screen, population patch clamp on CHO cells stably expressing hERG
Sequence (Q12809 whole entry, looked up): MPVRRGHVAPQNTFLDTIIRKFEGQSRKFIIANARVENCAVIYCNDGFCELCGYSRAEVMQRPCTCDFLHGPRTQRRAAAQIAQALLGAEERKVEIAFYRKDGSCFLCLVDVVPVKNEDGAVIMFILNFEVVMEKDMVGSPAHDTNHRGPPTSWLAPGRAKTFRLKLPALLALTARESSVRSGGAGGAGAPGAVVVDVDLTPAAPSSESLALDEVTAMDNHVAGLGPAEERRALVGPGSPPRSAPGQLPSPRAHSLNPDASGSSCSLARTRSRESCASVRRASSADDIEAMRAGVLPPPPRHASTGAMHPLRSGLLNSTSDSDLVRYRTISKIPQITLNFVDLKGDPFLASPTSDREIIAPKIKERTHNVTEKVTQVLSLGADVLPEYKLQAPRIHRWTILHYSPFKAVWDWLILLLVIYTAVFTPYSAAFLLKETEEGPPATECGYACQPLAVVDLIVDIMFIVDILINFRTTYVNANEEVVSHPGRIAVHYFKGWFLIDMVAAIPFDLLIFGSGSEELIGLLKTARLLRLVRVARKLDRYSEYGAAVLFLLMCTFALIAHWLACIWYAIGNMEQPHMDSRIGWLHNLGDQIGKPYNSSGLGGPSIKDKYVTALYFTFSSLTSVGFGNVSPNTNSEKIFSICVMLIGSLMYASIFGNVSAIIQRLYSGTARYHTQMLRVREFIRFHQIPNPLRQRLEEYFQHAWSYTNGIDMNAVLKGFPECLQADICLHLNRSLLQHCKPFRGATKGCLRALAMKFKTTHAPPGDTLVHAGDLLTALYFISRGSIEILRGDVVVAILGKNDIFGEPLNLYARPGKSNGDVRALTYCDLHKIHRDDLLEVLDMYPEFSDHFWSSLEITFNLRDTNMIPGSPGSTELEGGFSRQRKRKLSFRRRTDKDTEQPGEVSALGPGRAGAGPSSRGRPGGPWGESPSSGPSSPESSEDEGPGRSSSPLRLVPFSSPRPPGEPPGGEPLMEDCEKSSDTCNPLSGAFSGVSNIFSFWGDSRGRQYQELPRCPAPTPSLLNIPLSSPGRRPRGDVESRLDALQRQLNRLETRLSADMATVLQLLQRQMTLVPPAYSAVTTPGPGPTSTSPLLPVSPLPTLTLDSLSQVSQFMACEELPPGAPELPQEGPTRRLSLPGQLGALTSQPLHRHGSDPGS

SMILES	hERG current change (%, negative = inhibition) at 1uM
Cc1ccc(C(=O)N/C(=C\c2ccco2)C(=O)NCCN2CCCCC2)cc1C	-33.1%
COC(=O)c1cc(C(=O)CSc2nc(C)cc(C)n2)ccc1O	13.2%
COc1ccc(C2/C=C\CN(C(=O)c3ccc(C)cc3)[C@H](Cc3ccccc3)C(=O)N2Cc2ccc(F)cc2)cc1 (some centres unmarked)	11.8%
Cc1ncn(-c2ccc(C(=O)Oc3ccccc3)cn2)n1	9.5%
c1ccc(-c2noc(CN3CCN(c4ccccc4)CC3)n2)cc1	7.76%
CN(C)S(=O)(=O)N(CC(=O)N(Cc1ccccc1)Cc1ccccc1)c1ccccc1	0.942%
CCOc1ccc(-n2ccnc(SCC(=O)NCCc3ccccc3)c2=O)cc1	14.9%
O=S(=O)(NCC(c1ccc2c(c1)OCO2)N1CCOCC1)c1ccc(Cl)cc1 (centres unmarked)	3.93%
COCc1nnc(NC(=O)c2cccc(NC(=O)C(C)C)c2)s1	9.84%
COc1cc(/C=C/CO)ccc1O[C@@H]1O[C@H](CO)[C@@H](O)[C@H](O)[C@H]1O	16%
O=c1[nH]cnc2[nH]ncc12	18.1%
CC1Cc2nc(SCC(=O)NCCc3ccccc3)n(C)c(=O)c2S1 (centres unmarked)	-5.45%
CCCOP(=O)(c1ccc(N(C)C)cc1)C(Nc1ccccc1)c1ccc(N(C)C)cc1 (centres unmarked)	9.27%
COc1ccccc1C(C)NCC(=O)NCC(=O)Nc1ccc(F)c(F)c1F (centres unmarked)	14.7%
COc1ccc(NC(=S)Nc2cc(-c3ccccc3)[nH]n2)cc1Cl	10.4%
COC(=O)c1cn(CCOc2ccc(C)cc2)c2ccccc12	8.89%
O=C(CSc1nnc(CNC(=O)c2ccccc2F)o1)NCC1CCCO1 (centres unmarked)	9.87%
NC(=O)c1ccc(NC(=O)CSC2=Nc3ccccc3C3CC=NN23)cc1 (centres unmarked)	9.56%
CCOc1ccc(-c2c(C#N)c(N)nc3c2c(=O)n(C)c(=O)n3C)cc1OC	18.9%
C#CCOCCOCCOCCNc1nc(N2CCOCC2)nc(N2CCN(C(=O)CCCCCCCCCCNC(=O)[C@H]([C@@H](C)CC)n3cc(CCCCN=C(N)N)nn3)CC2)n1	5.4%
CCOC(=O)c1c(-c2cccs2)csc1NC(=O)COC(=O)c1c(C)noc1C	1.72%
NC(=O)NC(=O)COC(=O)c1ccc(Cl)c(S(=O)(=O)N(Cc2ccccc2)c2ccc(Cl)cc2)c1	5.92%

SMILES	hERG current change (%, negative = inhibition) at 1uM
CC1=Nn2c(nnc2-c2ccccc2)SC1	6.74%
Cc1oncc1C(=O)NC(C)C	2.68%
NS(=O)(=O)c1ccc(CCNS(=O)(=O)c2ccc3c(c2)NC(=O)CO3)cc1	12.8%
O=c1cc[nH]c2c1ccc1cccnc12	9.46%
O=C(Nc1ccc(S(=O)(=O)Nc2ncccn2)cc1)c1ccccc1	13.4%
COc1ccc2nc(SCC(=O)O)nc(C)c2c1	7.04%
Cc1csc2nc(CNC(=O)C3CC=CCC3C(=O)O)cn12 (centres unmarked)	15.2%
COc1ccc(C(C)NC(=O)CC23CC4CC(CC(C4)C2)C3)cc1 (centres unmarked)	5.09%
O=C1NC2(CCCCC2)CO1	14.6%
CCCCn1c(=NC(=O)c2cccnc2)c(C#N)cc2c(=O)n3cccc(C)c3nc21	8.7%
CCN(CC)CCN(Cc1cc2cc(C)ccc2[nH]c1=O)C(=S)Nc1ccccc1	-23.4%
CCN(CC)CCN(C(=O)c1ccc2c(c1)OCCO2)c1nc2cc3c(cc2s1)OCO3.Cl	-18.3%
CC(=O)OC1CC(C)(C)N(OC(=O)c2ccc(N)cc2)C(C)(C)C1	1.52%
CCN(CC)C(=O)C(=O)c1cn(CC(=O)N2CCc3ccccc3C2)c2ccccc12	0.281%
CC1Cc2cc(S(=O)(=O)N3CCC(C(=O)Nc4ccccn4)CC3)ccc2N1C(=O)C1CCC1 (centres unmarked)	11.7%
COc1cc(-c2nc(-c3ccc4c(c3)-c3ccccc3S4(=O)=O)c(-c3ccccc3)[nH]2)cc(OC)c1OC	5.24%
Cc1cccc(CSC2=NN3CCCC(=O)N=C3S2)c1	6.6%
CCCS(=O)(=O)N1CCC(C(=O)c2cccc(C(F)(F)F)c2)CC1	-1.12%
COc1ccc(C(C(=O)NC2CCCC2)N(CCCO)C(=O)Cn2nnc(-c3ccc(C)o3)n2)cc1 (centres unmarked)	15.2%
Nc1nc2ccc(S(=O)(=O)N3CCCCC3)cc2s1	24.3%
CC(=O)Nc1ccccc1-c1nc2ccccc2nc1OCC(=O)c1ccc2ccccc2c1	17.8%
Cc1[nH]c(=O)[nH]c(=O)c1S(=O)(=O)N1CCCC(C(=O)NCCC2=CCCCC2)C1 (centres unmarked)	13.8%
